B1: GPR68, Q15743 (parent)
chain: MGNITADNSSMSCTIDHTIHQTLAPVVYVTVLVVGFPANCLSLYFGYLQIKARNELGVYLCNLTVADLFYICSLPFWLQYVLQHDNWSHGDLSCQVCGILLYENIYISVGFLCCISVDRYLAVAHPFRFHQFRTLKAAVGVSVVIWAKELLTSIYFLMHEEVIEDENQHRVCFEHYPIQAWQRAINYYRFLVGFLFPICLLLASYQGILRAVRRSHGTQKSRKDQIQRLVLSTVVIFLACFLPYHVLLLVRSVWEASCDFAKGVFNAYHFSLLLTSFNCVADPVLYCFVSETTHRDLARLRGACLAFLTCSRTGRAREAYPLGAPEASGKSGAQGEEPELLTKLHPAFQTPNSPGSGGFPTGRLA

Variants of B1 are the subject of data set [1]. Put plainly: cAMP reporter score (Enrich2 score, wild type = 0); higher = more signal; HEK293T, FACS bins.
Variants of B1 are the subject of data set [2]. Nature of the data set: surface expression score (Enrich2 score, wild type = 0); higher = more signal; HEK293T, FACS bins.

The least precise scores are not listed. Not listed are two conditions whose scores span a narrow range. Names with del lack the residues named; names with ins carry added residues between the positions named. For some assays here: The data file names ogerin without a concentration.

Take P338_E339del: the cAMP reporter score in data set [1] (pH 5.5) was 0.381; in data set [1] (pH 6), 0.985; in data set [1] (pH 6, modulator: ogerin) it was 0.125; in data set [1] (pH 6.5, modulator: ogerin), 0.61. The surface expression score in data set [2] was -0.157.
With L340_L341del, the cAMP reporter score was 0.569 in data set [1] (pH 5.5); -0.094 in data set [1] (pH 6); 0.314 in data set [1] (pH 6, modulator: ogerin); 0.541 in data set [1] (pH 6.5, modulator: ogerin). The surface expression score in data set [2] came to 0.199.
Turning to P346_F348del, the cAMP reporter score in data set [1] (pH 5.5) is -0.22; in data set [1] (pH 6), -0.459; in data set [1] (pH 6, modulator: ogerin) it was -0.166; in data set [1] (pH 6.5, modulator: ogerin), -0.601. Moreover, in data set [2], the surface expression score was -0.161.
Turning to P338_E339insGS, the cAMP reporter score was 0.339 in data set [1] (pH 5.5); 0.27 in data set [1] (pH 6); 0.766 in data set [1] (pH 6, modulator: ogerin); -0.087 in data set [1] (pH 6.5, modulator: ogerin). In addition, the surface expression score in data set [2] was found to be 1.12.
For H345_P346del the same measures were 0.346, 0.046, 0.281, -0.034 and 0.637.
Turning to L340_L341insG, the cAMP reporter score was 0.346 in data set [1] (pH 5.5); 2.67 in data set [1] (pH 6); 1.4 in data set [1] (pH 6, modulator: ogerin); 0.871 in data set [1] (pH 6.5, modulator: ogerin). Besides, the surface expression score in data set [2] was determined as 1.32.
The matching figures for L341_T342insGS: -0.865, -0.565, -0.299, -0.631 and 0.092.
Take T350_P351insGS: the cAMP reporter score in data set [1] (pH 5.5) turned out to be 1.25; in data set [1] (pH 6) it was 1.21; in data set [1] (pH 6, modulator: ogerin), 1.6; in data set [1] (pH 6.5, modulator: ogerin), 1.59. Further, the surface expression score in data set [2] came out at 1.17.
For the variant E336del, the cAMP reporter score in data set [1] (pH 5.5) stood at 1.6; in data set [1] (pH 6) it was 0.427; in data set [1] (pH 6, modulator: ogerin), 0.72; in data set [1] (pH 6.5, modulator: ogerin), 1.64. Also, the surface expression score in data set [2] was found to be 1.15.
For the variant P346Q, the cAMP reporter score in data set [1] (pH 5.5) was 1.45; in data set [1] (pH 6), -0.452; in data set [1] (pH 6, modulator: ogerin) it was 1.39; in data set [1] (pH 6.5, modulator: ogerin), 0.567. For the same variant, the surface expression score in data set [2] was 1.4.
For the variant P346C, the cAMP reporter score is 0.505 in data set [1] (pH 5.5); -1.41 in data set [1] (pH 6); 0.142 in data set [1] (pH 6.5, modulator: ogerin). For the same variant, the surface expression score in data set [2] is -0.137.
In the case of P346R, the cAMP reporter score was 1.07 in data set [1] (pH 5.5); 0.197 in data set [1] (pH 6); 0.196 in data set [1] (pH 6, modulator: ogerin); 0.371 in data set [1] (pH 6.5, modulator: ogerin). Further, the surface expression score in data set [2] worked out at 0.151.
Turning to P346Y, the cAMP reporter score is -0.646 in data set [1] (pH 5.5); -0.764 in data set [1] (pH 6); 0.434 in data set [1] (pH 6, modulator: ogerin); -0.636 in data set [1] (pH 6.5, modulator: ogerin). For the same variant, the surface expression score in data set [2] is -0.749.
The matching figures for P346W: -0.116, -0.323, -0.477, -0.99 and -0.727.
In the case of P346S, the cAMP reporter score is 0.81 in data set [1] (pH 5.5); -0.043 in data set [1] (pH 6); 0.776 in data set [1] (pH 6, modulator: ogerin); -0.057 in data set [1] (pH 6.5, modulator: ogerin). For the same variant, the surface expression score in data set [2] amounted to 0.633.
The matching figures for P346E: 0.498, 0.24, 0.477, 0.284 and 0.969.
P346M: the cAMP reporter score is 0.974 in data set [1] (pH 5.5); -0.054 in data set [1] (pH 6); 0.058 in data set [1] (pH 6, modulator: ogerin); 0.333 in data set [1] (pH 6.5, modulator: ogerin). Also, the surface expression score in data set [2] was -0.247.
Take P346G: the cAMP reporter score in data set [1] (pH 5.5) came to 0.787; in data set [1] (pH 6, modulator: ogerin), 0.612; in data set [1] (pH 6.5, modulator: ogerin), 1.09. In data set [2], the surface expression score is 0.743.
P346L: the cAMP reporter score in data set [1] (pH 5.5) was 0.453; in data set [1] (pH 6), -0.598; in data set [1] (pH 6, modulator: ogerin) it was -0.019; in data set [1] (pH 6.5, modulator: ogerin), 1.05. The surface expression score in data set [2] was 0.394.
Turning to P346I, the cAMP reporter score in data set [1] (pH 5.5) was 1.7; in data set [1] (pH 6), -0.769; in data set [1] (pH 6, modulator: ogerin), 1.19; in data set [1] (pH 6.5, modulator: ogerin), 0.292. In addition, the surface expression score in data set [2] is 0.352.
With P346N, the cAMP reporter score in data set [1] (pH 5.5) is 1.95; in data set [1] (pH 6), 1.7; in data set [1] (pH 6, modulator: ogerin), 2.12; in data set [1] (pH 6.5, modulator: ogerin), 1.31. In addition, the surface expression score in data set [2] stood at 1.41.
In the case of P346A, the cAMP reporter score in data set [1] (pH 5.5) is 0.428; in data set [1] (pH 6) it was -0.369; in data set [1] (pH 6, modulator: ogerin) it was -0.298; in data set [1] (pH 6.5, modulator: ogerin), 0.017. Also, the surface expression score in data set [2] is -0.041.
For P346D, the cAMP reporter score in data set [1] (pH 5.5) came to 0.66; in data set [1] (pH 6, modulator: ogerin) it was 0.545; in data set [1] (pH 6.5, modulator: ogerin), 0.793. The surface expression score in data set [2] stood at 0.956.
In the case of P346F, the cAMP reporter score in data set [1] (pH 5.5) is 0.428; in data set [1] (pH 6) it was 0.524; in data set [1] (pH 6, modulator: ogerin) it was -0.606; in data set [1] (pH 6.5, modulator: ogerin), 0.24.
For P346K, the cAMP reporter score came out at 1.27 in data set [1] (pH 5.5) and 0.885 in data set [1] (pH 6, modulator: ogerin). In addition, the surface expression score in data set [2] came out at 0.154.
Turning to P346H, the cAMP reporter score in data set [1] (pH 5.5) is 0.783; in data set [1] (pH 6), -0.305; in data set [1] (pH 6, modulator: ogerin) it was 0.267; in data set [1] (pH 6.5, modulator: ogerin) it was 0.548. The surface expression score in data set [2] turned out to be 0.438.
Turning to P346V, the cAMP reporter score was -0.469 in data set [1] (pH 5.5); -0.483 in data set [1] (pH 6); -0.943 in data set [1] (pH 6, modulator: ogerin); -0.849 in data set [1] (pH 6.5, modulator: ogerin). Further, the surface expression score in data set [2] was -0.42.
Take L340del: the cAMP reporter score in data set [1] (pH 5.5) was 0.621; in data set [1] (pH 6), 0.222; in data set [1] (pH 6, modulator: ogerin), 0.494; in data set [1] (pH 6.5, modulator: ogerin), -0.061. Besides, in data set [2], the surface expression score came to 0.878.
Turning to E339_L340del, the cAMP reporter score worked out at 0.662 in data set [1] (pH 5.5); 0.912 in data set [1] (pH 6); 1.02 in data set [1] (pH 6, modulator: ogerin); 0.121 in data set [1] (pH 6.5, modulator: ogerin). For the same variant, the surface expression score in data set [2] amounted to 0.927.
As for P346_A347del, the cAMP reporter score in data set [1] (pH 5.5) stood at 0.545; in data set [1] (pH 6), 0.95; in data set [1] (pH 6, modulator: ogerin), 0.974; in data set [1] (pH 6.5, modulator: ogerin), 0.157. Also, in data set [2], the surface expression score is 0.252.
Consider E336_P338del, for which the cAMP reporter score in data set [1] (pH 5.5) was 1.4; in data set [1] (pH 6) it was 2.08; in data set [1] (pH 6, modulator: ogerin), 1.2; in data set [1] (pH 6.5, modulator: ogerin) it was 1.75. Besides, the surface expression score in data set [2] came to 1.49.

Values taken from the GPR68 mutational scans of Howard et al. (2025).
